We go through 73 sequences from the BET-seq Pho4 binding data (Le et al. 2018).

Some of the results follow. Values were computed here from the reads of four pooled replicates and scatter widely.

For the experiment, the target named is T1, Pho4 (S. cerevisiae) (UniProt P07270).
T1 sequence: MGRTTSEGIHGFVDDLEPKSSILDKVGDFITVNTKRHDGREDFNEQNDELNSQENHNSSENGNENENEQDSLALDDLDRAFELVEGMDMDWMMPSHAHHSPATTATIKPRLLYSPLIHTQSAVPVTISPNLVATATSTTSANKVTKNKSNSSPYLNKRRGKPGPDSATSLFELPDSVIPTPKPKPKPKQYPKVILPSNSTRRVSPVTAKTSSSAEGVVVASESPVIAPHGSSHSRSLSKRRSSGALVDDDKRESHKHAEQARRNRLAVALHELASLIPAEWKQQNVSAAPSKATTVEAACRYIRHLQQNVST
The experiment can be described thus: relative binding free energy (BET-seq); higher = weaker binding. As to conditions: reference: library average.
Take CGTGTCACGTGGTATG: the “relative binding free energy” value is -0.14 kcal/mol.

For TTGCACACGTGCTGGG, the “relative binding free energy” value stood at 0.01 kcal/mol.

TGGACCACGTGGAGAG: the “relative binding free energy” value is 0.05 kcal/mol.

On to GGTCGCACGTGTGCGG, for which the “relative binding free energy” value was 0.01 kcal/mol.

For the sequence AGTGGCACGTGCCAGG, the “relative binding free energy” value is -0.29 kcal/mol.

For the sequence AAAGGCACGTGAGGAG, the “relative binding free energy” value was 0.07 kcal/mol.

With TATGTCACGTGGAATA, the “relative binding free energy” value came out at 0.06 kcal/mol.

In the case of AGTGTCACGTGAGCAG, the “relative binding free energy” value worked out at 0.14 kcal/mol.

Take AGCGACACGTGATGTT: the “relative binding free energy” value is 0.22 kcal/mol.

GTCAACACGTGTGGCT: the “relative binding free energy” value was 0.26 kcal/mol.

Regarding TATTTCACGTGTGATT, the “relative binding free energy” value came to 0.22 kcal/mol.

For the sequence TGTTCCACGTGATTTT, the “relative binding free energy” value came out at 0.09 kcal/mol.

Consider AGGTACACGTGTAATT, for which the “relative binding free energy” value came to 0.18 kcal/mol.

Consider AACTACACGTGGAGGT, for which the “relative binding free energy” value is 0.14 kcal/mol.

With TAGAGCACGTGTTCGG, the “relative binding free energy” value is -0.11 kcal/mol.

Regarding TGGGACACGTGTGAAA, the “relative binding free energy” value is 0.09 kcal/mol.

Consider TTGCGCACGTGTGGAG, for which the “relative binding free energy” value is -0.05 kcal/mol.

As to TGGGACACGTGGGTGC, the “relative binding free energy” value was -0.14 kcal/mol.

Turning to ATGAGCACGTGGTCAT, the “relative binding free energy” value was -0.15 kcal/mol.

As for TCTTACACGTGTTGGA, the “relative binding free energy” value came to 0.12 kcal/mol.

As to TGGGTCACGTGGATCG, the “relative binding free energy” value turned out to be 0.1 kcal/mol.

For the sequence TGTTGCACGTGACCGG, the “relative binding free energy” value was -0.12 kcal/mol.

For GAGCACACGTGGGGGA, the “relative binding free energy” value came to 0.17 kcal/mol.

With TATAGCACGTGGGCGC, the “relative binding free energy” value was -0.17 kcal/mol.

In the case of TTTCTCACGTGTGCTA, the “relative binding free energy” value came to 0.23 kcal/mol.

ATTGGCACGTGTAGCT: the “relative binding free energy” value was -0.17 kcal/mol.

On to ATTTTCACGTGAAGAA, for which the “relative binding free energy” value was 0.31 kcal/mol.

Regarding AAGTTCACGTGTGCTG, the “relative binding free energy” value worked out at 0.18 kcal/mol.

Take GTGCTCACGTGGGTCT: the “relative binding free energy” value turned out to be 0.13 kcal/mol.

As to AGGGGCACGTGTCCGT, the “relative binding free energy” value is -0.21 kcal/mol.

For the sequence AAGCGCACGTGGGGCA, the “relative binding free energy” value is -0.22 kcal/mol.

Take CGTGGCACGTGCAGGG: the “relative binding free energy” value was -0.14 kcal/mol.

Take TCTTTCACGTGGCTTG: the “relative binding free energy” value was 0.29 kcal/mol.

With TTAAGCACGTGTAGGT, the “relative binding free energy” value was -0.11 kcal/mol.

On to CAGTGCACGTGGTGAG, for which the “relative binding free energy” value was -0.27 kcal/mol.

As to ACTGGCACGTGTGGTC, the “relative binding free energy” value was -0.09 kcal/mol.

Take TGAATCACGTGGTGGC: the “relative binding free energy” value was 0.17 kcal/mol.

As for TGAGACACGTGTATGT, the “relative binding free energy” value was determined as 0.03 kcal/mol.

Turning to TGAGCCACGTGTAGGG, the “relative binding free energy” value is -0.06 kcal/mol.

As for TGGAGCACGTGTGTTG, the “relative binding free energy” value was determined as 0.02 kcal/mol.

With TGCTGCACGTGGAGGA, the “relative binding free energy” value was -0.11 kcal/mol.

Regarding AGTTTCACGTGGCCGG, the “relative binding free energy” value amounted to 0.24 kcal/mol.

Turning to AGATACACGTGGTGGG, the “relative binding free energy” value amounted to 0.01 kcal/mol.

As for GTAACCACGTGGTGTG, the “relative binding free energy” value was -0.04 kcal/mol.

GAGGGCACGTGGAGCT: the “relative binding free energy” value is -0.07 kcal/mol.

On to TTCATCACGTGTTATA, for which the “relative binding free energy” value stood at 0.08 kcal/mol.

Regarding CCTATCACGTGTTGGT, the “relative binding free energy” value was found to be 0.17 kcal/mol.

In the case of GAGGTCACGTGTGTTT, the “relative binding free energy” value came to 0.17 kcal/mol.

For GTTAACACGTGTTAAG, the “relative binding free energy” value was determined as 0.1 kcal/mol.

As to TGATGCACGTGTGGAT, the “relative binding free energy” value worked out at 0.17 kcal/mol.

TGTAACACGTGGAGTG: the “relative binding free energy” value came to 0.02 kcal/mol.

In the case of TATCGCACGTGTGGAG, the “relative binding free energy” value was 0.15 kcal/mol.

As for TGGGCCACGTGATGTG, the “relative binding free energy” value turned out to be 0.05 kcal/mol.

For the sequence GGGTGCACGTGGTCGT, the “relative binding free energy” value is -0.17 kcal/mol.

TAGAGCACGTGTTTGT: the “relative binding free energy” value was -0.08 kcal/mol.

For TGGTTCACGTGACAGT, the “relative binding free energy” value amounted to 0.32 kcal/mol.

For GTAGGCACGTGTCATA, the “relative binding free energy” value amounted to 0.03 kcal/mol.

Consider ATGTGCACGTGTGCAA, for which the “relative binding free energy” value was -0.08 kcal/mol.

As for AGGTGCACGTGGGCAA, the “relative binding free energy” value was -0.31 kcal/mol.

For CGTTTCACGTGTTTGT, the “relative binding free energy” value came out at 0.27 kcal/mol.

Regarding ACTTTCACGTGTCGGT, the “relative binding free energy” value turned out to be 0.16 kcal/mol.

Regarding ATTGGCACGTGAAGTA, the “relative binding free energy” value was 0.1 kcal/mol.

On to GATCGCACGTGATAGG, for which the “relative binding free energy” value came to 0.23 kcal/mol.

As for TTAGGCACGTGCGTTG, the “relative binding free energy” value is -0.1 kcal/mol.

Take CTGGACACGTGTTGTA: the “relative binding free energy” value was -0.03 kcal/mol.

On to GTAATCACGTGGTTTA, for which the “relative binding free energy” value stood at 0.21 kcal/mol.

With TTGAACACGTGAGGCG, the “relative binding free energy” value was 0.25 kcal/mol.

On to GGCGTCACGTGAGCTG, for which the “relative binding free energy” value worked out at 0.35 kcal/mol.

For the sequence GAGGCCACGTGGTTGA, the “relative binding free energy” value was -0.04 kcal/mol.

With TCATACACGTGTTGGT, the “relative binding free energy” value came to 0.1 kcal/mol.

As for GGACGCACGTGAGAGT, the “relative binding free energy” value was determined as 0.24 kcal/mol.

With AATCTCACGTGTGTGG, the “relative binding free energy” value came out at 0.29 kcal/mol.

As to TTTACCACGTGATTTG, the “relative binding free energy” value is 0.22 kcal/mol.
